Measured values from the supplement of paper PMC4604168 (melanoma cell lines).
The list shows a part of the results. Repeats are few or missing, and single values can be far off.

Columns and labels:
Experiment in all cases: cell count relative to DMSO control; melanoma cells; higher = more viable cells
Settings in all cases: library dose: low library concentration; 72 h
MZ2-MEL = system: MZ2-MEL
MeWo = system: MeWo
RPMI7951 = system: RPMI7951
RVH-421 = system: RVH-421
SkMel28 = system: SkMel28
SkMel2 = system: SkMel2
SkMel30 = system: SkMel30
SkMel5 = system: SkMel5
UACC257 = system: UACC257
UACC62 = system: UACC62
WM115 = system: WM115
WM1716 = system: WM1716
WM1745 = system: WM1745
WM3526 = system: WM3526
WM3619 = system: WM3619
WM451Lu = system: WM451Lu
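Further: cell number obtained by counting DAPI-stained nuclei in high-throughput microscope images with image analysis software, screen run in 1,536-well plates.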

SMILES	cell count (MZ2-MEL) [%]	cell count (MeWo) [%]	cell count (RPMI7951) [%]	cell count (RVH-421) [%]	cell count (SkMel28) [%]	cell count (SkMel2) [%]	cell count (SkMel30) [%]	cell count (SkMel5) [%]	cell count (UACC257) [%]	cell count (UACC62) [%]	cell count (WM115) [%]	cell count (WM1716) [%]	cell count (WM1745) [%]	cell count (WM3526) [%]	cell count (WM3619) [%]	cell count (WM451Lu) [%]
O=c1[nH]nc(Sc2ncc([N+](=O)[O-])s2)n1-c1ccc2c(c1)OCCO2 + COc1ccc(COc2ccc(Cc3cnc(N)nc3N)cc2OC)cc1 [GW2580] (first compound 0.2 µM, partner dose 1 µM)	101	109	88	97.4	128	104	109	92.9	93.3	112	100	96.8	97	117	94.5	75.2
COc1cc(Nc2ncc(F)c(Nc3ccc4c(n3)NC(=O)C(C)(C)O4)n2)cc(OC)c1OC [Tamatinib] + CO[C@@H]1[C@H](N(C)C(=O)c2ccccc2)C[C@H]2O[C@]1(C)n1c3ccccc3c3c4c(c5c6ccccc6n2c5c31)C(=O)NC4 [Midostaurin] (first compound 0.4 µM, partner dose 0.08 µM)	78.1	73.2	61.3	79.7	102	64.2	93.4	81.9	64	70.9	64.2	57.2	53.2	70.2	66.8	87.4
O=c1[nH]nc(Sc2ncc([N+](=O)[O-])s2)n1-c1ccc2c(c1)OCCO2 + COC(=O)c1sccc1S(=O)(=O)Nc1ccc(Nc2ccccc2)cc1OC [GSK0660] (first compound 0.2 µM, partner dose 1 µM)	92.3	101	107	92.5	89	92.3	109	91.3	105	93.9	93.3	100	109	93.6	69	88.5
COc1cc(Nc2ncc(F)c(Nc3ccc4c(n3)NC(=O)C(C)(C)O4)n2)cc(OC)c1OC [Tamatinib] + NCC(=O)Nc1ccc(-n2nc(C(F)(F)F)cc2-c2ccc3c(ccc4ccccc43)c2)cc1 [OSU03012] (first compound 0.4 µM, partner dose 1 µM)	90.6	61.6	95.3	87	76	77.8	0.197	72.3	66.1	87.6	93.2	90.9	73.1	49.8	85.6	90.5
CC1(C)NC(=O)N(c2ccc([N+](=O)[O-])c(C(F)(F)F)c2)C1=O [nilutamide] + Cn1cncc1[C@@](N)(c1ccc(Cl)cc1)c1ccc2c(c1)c(-c1cccc(Cl)c1)cc(=O)n2C [tipifarnib] (first compound 1 µM, partner dose 0.01 µM)	101	98.7	94.8	73.6	84.3	76.5	78.9	93.3	73.8	59.9	90.7	79.2	81.8	51.5	84	72.8
O=c1[nH]nc(Sc2ncc([N+](=O)[O-])s2)n1-c1ccc2c(c1)OCCO2 + CN(C)S(=O)(=O)c1ccc2c(c1)/C(=C/c1cc3c([nH]1)CCCC3)C(=O)N2 [SU6656] (first compound 0.2 µM, partner dose 0.4 µM)	102	84.2	125	94.3	81.9	91.7	106	74.9	68.2	82.9	78.1	113	92.7	86.6	92	86.3
O=c1[nH]nc(Sc2ncc([N+](=O)[O-])s2)n1-c1ccc2c(c1)OCCO2 + CCc1ccc(CCOc2ccc(CC3SC(=O)NC3=O)cc2)nc1 [pioglitazone] (first compound 0.2 µM, partner dose 2 µM)	98.9	101	87.4	95.5	106	109	104	94.9	89.4	94	99.3	92.5	83.8	91.6	106	102
O=c1[nH]nc(Sc2ncc([N+](=O)[O-])s2)n1-c1ccc2c(c1)OCCO2 + CCN(CC)CCCCNc1ncc2cc(-c3cc(OC)cc(OC)c3)c(NC(=O)NC(C)(C)C)nc2n1 [PD173074] (first compound 0.2 µM, partner dose 0.1 µM)	104	99.5	91.3	93.7	93.1	108	93	93.4	116	102	106	100	99.6	106	82.2	112
O=c1[nH]nc(Sc2ncc([N+](=O)[O-])s2)n1-c1ccc2c(c1)OCCO2 + O=C(O)C(=O)Nc1sc2c(c1C(=O)O)CCNC2 [TCS401] (first compound 0.2 µM, partner dose 1.66667 µM)	103	104	91	96.2	96.5	105	93	95.7	97.5	91.7	94.9	98.8	78.8	95.5	96.1	98.2
O=c1[nH]nc(Sc2ncc([N+](=O)[O-])s2)n1-c1ccc2c(c1)OCCO2 + CCCCCCCCCCCC1=C(O)C(=O)C=C(O)C1=O [Embelin] (first compound 0.2 µM, partner dose 1.2 µM)	103	94.2	84.6	105	105	93.4	116	84.7	120	99.8	90.6	97.5	103	92.1	87.1	114
C[C@@H]1CCN(C(=O)CC#N)C[C@@H]1N(C)c1ncnc2[nH]ccc12 + NCC(=O)Nc1ccc(-n2nc(C(F)(F)F)cc2-c2ccc3c(ccc4ccccc43)c2)cc1 [OSU03012] (first compound 1 µM, partner dose 1 µM)	88.9	58.5	107	107	85.7	65.7	46.3	85.2	90.7	96.4	85.9	106	92.1	40.9	97.3	73.6
Cn1cncc1[C@@](N)(c1ccc(Cl)cc1)c1ccc2c(c1)c(-c1cccc(Cl)c1)cc(=O)n2C [tipifarnib] + O=C(O)c1ccc(-c2c[nH]c3ncc(-c4ccccc4)cc23)cc1C1CCCC1 [GSK650394] (first compound 0.01 µM, partner dose 0.16 µM)	101	77.2	72.4	93.1	86.6	83	102	95.6	63.1	79.1	87.7	75.5	88.3	103	87.9	82.1
CC1(C)NC(=O)N(c2ccc([N+](=O)[O-])c(C(F)(F)F)c2)C1=O [nilutamide] + NC(=O)Nc1cc(-c2cccc(F)c2)sc1C(=O)N[C@H]1CCCNC1 [AZD7762] (first compound 1 µM, partner dose 0.02 µM)	101	99.2	103	123	104	109	118	113	134	109	93.3	91.7	113	54.8	77.2	80.4
O=c1[nH]nc(Sc2ncc([N+](=O)[O-])s2)n1-c1ccc2c(c1)OCCO2 + COc1cc2ncnc(Nc3ccc(Oc4ccccc4)cc3)c2cc1OC [SrcI1] (first compound 0.2 µM, partner dose 2 µM)	100	102	109	110	86.6	113	107	117	108	105	114	108	79.4	104	135	116
O=c1[nH]nc(Sc2ncc([N+](=O)[O-])s2)n1-c1ccc2c(c1)OCCO2 + COc1ccc(-c2ccc3c(N4CCOCC4)nc(N4C[C@@H](C)O[C@@H](C)C4)nc3n2)cc1CO [KU0063794] (first compound 0.2 µM, partner dose 0.02 µM)	88.5	102	106	117	103	96.9	88.2	111	89.4	99.2	108	106	104	108	99.2	99.7
COc1cc(Nc2ncc(F)c(Nc3ccc4c(n3)NC(=O)C(C)(C)O4)n2)cc(OC)c1OC [Tamatinib] + O=C(Nc1cccc(Cl)c1)Nc1ncc(CCNc2ncnc3ccsc23)s1 [SNS314] (first compound 0.4 µM, partner dose 0.0008 µM)	93.8	82.4	85.2	101	71.1	93.2	80.3	98	54.2	72.9	66.4	91.7	58	82.7	86.7	88.6
Cn1cncc1[C@@](N)(c1ccc(Cl)cc1)c1ccc2c(c1)c(-c1cccc(Cl)c1)cc(=O)n2C [tipifarnib] + NCC(=O)Nc1ccc(-n2nc(C(F)(F)F)cc2-c2ccc3c(ccc4ccccc43)c2)cc1 [OSU03012] (first compound 0.01 µM, partner dose 1 µM)	102	52.5	93.9	72.7	79.1	58.9	59.7	90	74.9	79.3	88.9	76.2	93.3	52	112	49.2
Cn1cncc1[C@@](N)(c1ccc(Cl)cc1)c1ccc2c(c1)c(-c1cccc(Cl)c1)cc(=O)n2C [tipifarnib] + COc1cc2c(Oc3ccc4[nH]c(C)cc4c3F)ncnc2cc1OCCCN1CCCC1 [cediranib] (first compound 0.01 µM, partner dose 0.4 µM)	100	84.2	80.5	75.4	87	94	100	93.1	82.5	73.3	89	80.8	91.8	94.9	122	75.1
O=c1[nH]nc(Sc2ncc([N+](=O)[O-])s2)n1-c1ccc2c(c1)OCCO2 + c1cc(-c2cnn3cc(-c4ccc(OCCN5CCCCC5)cc4)cnc23)ccn1 [Dorsomorphin] (first compound 0.2 µM, partner dose 0.4 µM)	102	104	90.5	100	117	104	95.8	90.2	83	104	105	111	83.2	90.2	109	103
